Experimental findings from PubChem BioAssay (NCI) are described below.

This assay relates to NCI-H322M lung. Briefly: inhibition of tumour cell growth, NCI panel, 48 h.

Values joined by “and” are separate entries in the source; they are usually repeats but may differ in a detail not shown here. Equal values may be shown once.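 Five compound concentrations were applied to cells in 96-well plates for 48 hours; endpoints were derived by simple linear interpolation of the resulting dose-response curve. GI50 marks 50% less growth.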

`CCC/C=C/C=C/C(=O)OC1/C(=C/C(=O)OC)CC2CC(C(C)O)OC(=O)CC(O)CC3CC(OC(C)=O)C(C)(C)C(O)(CC4C/C(=C/C(=O)OC)CC(/C=C/C(C)(C)C1(O)O2)O4)O3` (stereo unspecified): the GI50 was 7.43 µM and 0.964 µM.
